The results in this text go back to the RNAGym collection of RNA variant scans (doi:10.1093/nar/gkz1192).

Sequences and labels used below:
B1: CPEB3 Ribozyme (parent)
chain: UAACAGGGGGCCACAGCAGAAGCGUUCACGUCGCAGCCCCUGUCAGAUUCUGGUGAAUCUGCGAAUUCUGCUGUAUAUCUC

Read counts are not given, so values of variants with three or more changes are uncertain.

The variants in the series derive from B1. The series can be described thus: self-cleavage, relative activity (ratio to wild type); higher = more cleavage; in vitro, sequencing. In short, it runs like this:
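Libraries of CPEB3 self-cleaving ribozyme mutants came from rounds of error-prone PCR and carried barcodes, which DNA sequencing matched to variants. In vitro transcription used T7 RNA polymerase at 37°C for 5 hours, with a further 15 min in DNase I before EDTA stopped the reaction; the ribozymes cleaved during both steps. The RNA was reverse transcribed with template switching and sequenced on Illumina. Relative activity is the cleaved/total read fraction of a variant divided by that of the unmutated ribozyme, averaged over three batches with at least 5 reads.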
Take A5C A15G A21G U60C U72A: the self-cleavage was found to be 0.1. Under A5C A18U U26A A75G stands 0.35; under A5C C37G U60C, 0.27. Under A5G A13U A21G G36C U51C U54C stands 0.13; under A5C U31A A35G A47U, 0.77; under A5C G6C G8A A45U, 0.43.

A5C A35U U67A A77U: the self-cleavage was 0.38. For A5C G52A C62G, the self-cleavage was 0.15. As for A5C A47G U58C, the figure is 1.1; as for A5G A13G A35U U60C A64G, 0.16. C4U G33A A45G U49C: the self-cleavage came to 0.3.

Turning to A5G A13U C29U A35G U80A, the self-cleavage was determined as 0.27. Under A5G A13U A21U U31C stands 0.25; under A5C A35G A57G A65G, 1.21; under A5G A13G U31A C38A U49G A64C, 0.14. As for C4U U26C U41C U76C C81U, the figure is 0.87. A5C A20C U58A A65C: the self-cleavage was found to be 0.08.

Take A5C A21U C38U: the self-cleavage is 0.37. Under A5G A13U U41A U48A U49C stands 0.25. Under A5C C11U A20G stands 0.51; under A5C U25C A35C, 0.39.

As to C4U G6A A21U A47G U76A, the self-cleavage came out at 0.16.

For the variant A5G A13U U31A U48C U78G, the self-cleavage was determined as 0.14. Regarding A5C A28C A56U C62U U72C U78C, the self-cleavage came to 0.14. As for C4U U26A U31A, the figure is 0.79. Under A5C A13G A21U U72C A77G stands 0.27. Under A5C A35U U43C stands 0.31; under A5C G9U A28U U43C U80C, 0.32. For A5C A64U C71A, the self-cleavage was determined as 0.07. Under A5C A18G G19A A28G U31A U78C stands 0.07; under C4U U26A A75G, 0.81. As for A5C U25C C29U C59U U74C, the self-cleavage was found to be 0.12. As for A5C U25C U66C C68G U72C, the figure is 0.04; as for A5C A15G A18G A45U, 0.61; as for A5C G24C U48C, 0.29.

Turning to C4U G9A A15G, the self-cleavage stood at 0.47. As for A5C C23G G46U, the figure is 0.17; as for A5C U25C U41A U43A U54C U58A U69A, 0.07. Regarding A5C C14A A45G U51A, the self-cleavage was 0.73. As for A5C G6C U67A U80C, the figure is 0.53. In the case of A5G A13U A28G A35G U41A U54C U58C, the self-cleavage turned out to be 0.17. In the case of A5G A13U U31A A56G U67C, the self-cleavage turned out to be 0.11. Under C4U U41C U54C U58A U80A stands 0.25.

In the case of C4U G9U A20G U54A, the self-cleavage amounted to 0.15. Under A5G A13G U31A A47U stands 0.42; under A5G A13G A18G A28G C29U U69A, 0.07. Under A5C G6C U26C U41A U43A A77C stands 0.27; under A5C G9U A20G U25C C38G, 0.07. A5G A13U A45G U72C: the self-cleavage was determined as 0.65.

In the case of C4U U26A C44U U58C U72A U76C, the self-cleavage stood at 0.19. Under A5C U31C U54C A77G U80C stands 0.71; under A5C C32A A35G U41A, 0.36; under A5C U43C U48C U66C G70A, 0.25.

For A5C A20G U43A A57G, the self-cleavage was determined as 0.74. Under A5C G6A A35G U43C A56G U76C stands 0.09; under C4U U26C U67A, 0.12. In the case of A5C A15U A18U U54C U60C U66C U78C, the self-cleavage is 0.1. Take C4U C12A A18G U41A U67A: the self-cleavage turned out to be 0.3. Under C4U U43C U51C A57G stands 0.61. As for A5C G53C U69C, the figure is 0.79. Under A5C G9A A15G A28G U67A stands 0.12; under A5C U69C U72A, 0.33. Consider C4U C62A U72C, for which the self-cleavage is 0.16. As for A5C U31C U80C, the self-cleavage worked out at 0.58.

A5G A13G A45C U54A: the self-cleavage stood at 0.52. Under A5C G19C A21C U69C U78C stands 0.16; under C4U U41A U74A, 0.55; under A5G A13U A28U U31A U49C A65C U66A, 0.07. As to A5G A13C U25C U41C A45G, the self-cleavage was 0.06.

For the variant A5C A57G U67C U76A, the self-cleavage is 0.15.

Turning to A5G A13G A28U C38G A64G, the self-cleavage amounted to 0.31. As for A5G A13G A18U U60C U72C, the figure is 0.09.

With C4U U26C U74C, the self-cleavage was 0.87.

With A5C U26A U60A, the self-cleavage amounted to 0.8. Under A5G A13G C23U G46A U51A U58G U60C stands 0.09; under A5C A28G U31A C40U G53C U78G, 0.04; under A5G A13U A20U A28G A35G U66C, 0.27. Under A5G A13G A18G A35G U72C stands 0.09; under A5C A20G U43A A56G, 0.44; under A5G A13U U41C U51C U80A, 0.54. As for A5G A13U A47G, the figure is 0.91. For the variant A5G A13U A20G U26C A28G U58A U78C, the self-cleavage worked out at 0.03.

Turning to A5C A15U U51C U66C G70A U72C, the self-cleavage turned out to be 0.31. Under C4U G9U A21C A65U U72A stands 0.37; under A5C A28G U78C, 0.6; under A5C G8A C14A A21G U31C A65U, 0.1. As to A5C A20U A35U U58C, the self-cleavage was 0.1. Under C4U G33C U48A stands 0.31.

In the case of A5C A20C G36U A47G, the self-cleavage was 0.22. For the variant A5G A13G A18U, the self-cleavage came out at 0.59. Under C4U C23G U54C U67A U74C stands 0.24; under A5C A21U A35G U41C A64G, 0.5. Under A5C A15G A20G G42A A45G U48C U74C stands 0; under A5C A13G A20U, 0.56.

Turning to A5C C29U C32U A57G U72C, the self-cleavage was 0.05. Under A5C G9A A35U U41G stands 0.31.

On to C4U G24A A57G, for which the self-cleavage came out at 0.33.

On to C4U G30A A45G, for which the self-cleavage is 0.47. As for A5G A13G G24A C38G A64G, the figure is 0.04; as for A5C G8A A21G A45U U51G, 0.06; as for C4U U26C A35G U41C U72C, 1.2. As for A5G A13G A35U A57G A64U, the self-cleavage came to 0.04. Under A5C C27A U58C A75U stands 0.33; under C4U U26A G36A, 0.36. Under A5C U31A U58C A64U stands 0.18; under A5C U25C C59U U72C, 0.58; under A5C A13G U41C G52C, 0.5.

A5C G19A U26C C59U: the self-cleavage came out at 0.1.

Take A5C G8A A21G U31C U78C U80A: the self-cleavage was found to be 0.04. As for C4U G6A U74C, the figure is 0.41. Under A5C G36A A57G stands 0.33; under C4U U31C U51A A64U U78A, 0.36; under C4U U41C U58A U76C U80A, 0.8. Under A5C A35U U51C stands 0.36; under A5C U51A A65G A77U, 0.57; under A5C A15U A18G U31C U49C A56G A64U, 0.21.

A5C A13C U31A: the self-cleavage was 0.55. Under A5G A13G A20U G24A A35U A56G stands 0.05. For the variant A5C U31C A56U C62U A77G, the self-cleavage was determined as 0.1. As for C4U C17U U67C, the figure is 0.36; as for A5C U51C U60A U78C, 0.38; as for A5G A13U U25C A57G U58G, 0.14.

Take A5C U69C U78A: the self-cleavage is 0.59.

With A5G A13G G42A U60C A64U, the self-cleavage was found to be 0.34. Under A5G A13G U26C U72C stands 0.19; under C4U U26A A28G C44U U69C U74C U76A, 0.08; under A5G A13G U25C, 0.36.

Consider A5G A13U U51A, for which the self-cleavage is 0.59. As for A5C A18G C40U A64U U76C, the figure is 0.16; as for C4U G6C G8A U26C A47G, 0.09. Under C4U U25C U69C stands 0.43. As for A5C G36U A47G U49C, the figure is 0.21. With A5C C32A A35G U60A U67C, the self-cleavage turned out to be 0.15.

Take A5G A13U A18U A45G U54C U72C: the self-cleavage stood at 0.13. Under A5C U25C G36A A56U U80C stands 0.17; under A5C C40A U66G, 0.16; under A5C U31A U49C U60C U66C, 0.12. Under A5C A15U A21G U26C U51C U60C stands 0.58. With C4U U26C U69C, the self-cleavage came to 0.25.

For the variant A5G A13C G61A A65G, the self-cleavage amounted to 0.25. As to A5C A15G A18G U51C G63A U69C U80C, the self-cleavage turned out to be 0.56. As for A5G A13G U43C U69A, the figure is 0.08; as for A5C A28G A64G U66C, 0.06; as for A5G A13G U26C C44G U72C, 0.09. For A5G A13U A15G A21G U74A, the self-cleavage amounted to 0.53.

On to A5G A13G U51A A56U U76A, for which the self-cleavage amounted to 0.07.

In the case of A5C C40A U41A, the self-cleavage was 0.36. Under A5C U26A U31C A35U U54C U67A U80C stands 0.07; under C4U U31A U60A A77G, 0.31. A5C C39A U51C A57G A65G U74C: the self-cleavage was determined as 0.09. Take A5C U31C A47G U69C A75U: the self-cleavage worked out at 0.16.

A5C A28G U51C U58A U60A A77G U78C: the self-cleavage is 0.22. Under A5C C34U U72C stands 0.44; under A5G A13G U54A U58C, 0.71; under A5G A13G U26G A45U A57C, 0.05. Consider A5G A13G A20G U74A, for which the self-cleavage was found to be 0.81.

Turning to C4U G9A G52U A57G A75G, the self-cleavage stood at 0.14. As for A5C A57G U72A C81A, the figure is 1.11; as for A5G A13U U26C, 0.67. As for C4U G63U A77G, the self-cleavage turned out to be 1.2. As for C4U U78A U80A, the figure is 1.23; as for C4U C32A G61A U80C, 0.23; as for A5G A13U C29A U48A U54A, 0.1. Under A5C A13G U78C stands 0.69; under A5G A13G U25C C37U G70C U78C, 0.23; under A5G A13G A45U A56U U66C, 0.07. As for C4U G7A C62U, the figure is 0.33.
